Results published in the supplement of paper PMC11741623.
The list shows a part of the results. Interaction screen of human proteins with wild-type SARS-CoV-2 proteins by split-DHFR complementation in yeast, 1 µg/mL methotrexate. Value = fitness of the pair (three or more lineages) minus that of the viral protein without a human partner, on a scale set by negative (0) and fused positive (1) controls, mean of up to three cultures; higher = more likely to interact. Active = false discovery rate below 0.05 (one-sided t-test) in at least one culture. Nearly all pairs are not hits, and differences among them are mostly noise (correlation between cultures about 0.3); most hits were seen in one culture only. Human sequences are the Swiss-Prot entries looked up by gene name; the clone may be another isoform. NSP2 values were corrected by the authors for a growth advantage. Listed are human proteins with a hit and a random twelfth of the others.

B1: MLN, P12872 (protein)
chain: MVSRKAVAALLVVHVAAMLASQTEAFVPIFTYGELQRMQEKERNKGQKKSLSVWQRSGEEGPVDPAEPIREEENEMIKLTAPLEIGMRMNSRQLEKYPATLEGLLSEMLPQHAAK
B2: MUTED, Q8TDH9 (protein)
chain: MSGGGTETPVGCEAAPGGGSKKRDSLGTAGSAHLIIKDLGEIHSRLLDHRPVIQGETRYFVKEFEEKRGLREMRVLENLKNMIHETNEHTLPKCRDTMRDSLSQVLQRLQAANDSVCRLQQREQERKKIHSDHLVASEKQHMLQWDNFMKEQPNKRAEVDEEHRKAMERLKEQYAEMEKDLAKFSTF
B3: LRRC42, Q9Y546 (protein)
chain: MSYYLSSENHLDPGPIYMRENGQLHMVNLALDGVRSSLQKPRPFRLFPKGFSVELCMNREDDTARKEKTDHFIFTYTREGNLRYSAKSLFSLVLGFISDNVDHIDSLIGFPEQIAEKLFSAAEARQKFTEPGAGLRALQKFTEAYGSLVLCSLCLRNRYLVISEKLEEIKSFRELTCLDLSCCKLGDEHELLEHLTNEALSSVTQLHLKDNCLSDAGVRKMTAPVRVMKRGLENLTLLDLSCNPEITDAGIGYLFSFRKLNCLDISGTGLKDIKTVKHKLQTHIGLVHSKVPLKEFDHSNCKTEGWADQIVLQWERVTAEAVKPRETSEPRAAAQRFYGKRSRAEAPLKCPLADTHMNSSEKLQFYKEKAPDCHGPVLKHEAISSQESKKSKKRPFEESETEQNNSSQPSKQKYVCLAVEDWDLLNSY
B4: LAMA4, Q16363 (protein)
chain: MALSSAWRSVLPLWLLWSAACSRAASGDDNAFPFDIEGSSAVGRQDPPETSEPRVALGRLPPAAEKCNAGFFHTLSGECVPCDCNGNSNECLDGSGYCVHCQRNTTGEHCEKCLDGYIGDSIRGAPQFCQPCPCPLPHLANFAESCYRKNGAVRCICNENYAGPNCERCAPGYYGNPLLIGSTCKKCDCSGNSDPNLIFEDCDEVTGQCRNCLRNTTGFKCERCAPGYYGDARIAKNCAVCNCGGGPCDSVTGECLEEGFEPPTGMDCPTISCDKCVWDLTDDLRLAALSIEEGKSGVLSVSSGAAAHRHVNEINATIYLLKTKLSERENQYALRKIQINNAENTMKSLLSDVEELVEKENQASRKGQLVQKESMDTINHASQLVEQAHDMRDKIQEINNKMLYYGEEHELSPKEISEKLVLAQKMLEEIRSRQPFFTQRELVDEEADEAYELLSQAESWQRLHNETRTLFPVVLEQLDDYNAKLSDLQEALDQALNYVRDAEDMNRATAARQRDHEKQQERVREQMEVVNMSLSTSADSLTTPRLTLSELDDIIKNASGIYAEIDGAKSELQVKLSNLSNLSHDLVQEAIDHAQDLQQEANELSRKLHSSDMNGLVQKALDASNVYENIVNYVSEANETAEFALNTTDRIYDAVSGIDTQIIYHKDESENLLNQARELQAKAESSSDEAVADTSRRVGGALARKSALKTRLSDAVKQLQAAERGDAQQRLGQSRLITEEANRTTMEVQQATAPMANNLTNWSQNLQHFDSSAYNTAVNSARDAVRNLTEVVPQLLDQLRTVEQKRPASNVSASIQRIRELIAQTRSVASKIQVSMMFDGQSAVEVHSRTSMDDLKAFTSLSLYMKPPVKRPELTETADQFILYLGSKNAKKEYMGLAIKNDNLVYVYNLGTKDVEIPLDSKPVSSWPAYFSIVKIERVGKHGKVFLTVPSLSSTAEEKFIKKGEFSGDDSLLDLDPEDTVFYVGGVPSNFKLPTSLNLPGFVGCLELATLNNDVISLYNFKHIYNMDPSTSVPCARDKLAFTQSRAASYFFDGSGYAVVRDITRRGKFGQVTRFDIEVRTPADNGLILLMVNGSMFFRLEMRNGYLHVFYDFGFSGGPVHLEDTLKKAQINDAKYHEISIIYHNDKKMILVVDRRHVKSMDNEKMKIPFTDIYIGGAPPEILQSRALRAHLPLDINFRGCMKGFQFQKKDFNLLEQTETLGVGYGCPEDSLISRRAYFNGQSFIASIQKISFFDGFEGGFNFRTLQPNGLLFYYASGSDVFSISLDNGTVIMDVKGIKVQSVDKQYNDGLSHFVISSVSPTRYELIVDKSRVGSKNPTKGKIEQTQASEKKFYFGGSPISAQYANFTGCISNAYFTRVDRDVEVEDFQRYTEKVHTSLYECPIESSPLFLLHKKGKNLSKPKASQNKKGGKSKDAPSWDPVALKLPERNTPRNSHCHLSNSPRAIEHAYQYGGTANSRQEFEHLKGDFGAKSQFSIRLRTRSSHGMIFYVSDQEENDFMTLFLAHGRLVYMFNVGHKKLKIRSQEKYNDGLWHDVIFIRERSSGRLVIDGLRVLEESLPPTEATWKIKGPIYLGGVAPGKAVKNVQINSIYSFSGCLSNLQLNGASITSASQTFSVTPCFEGPMETGTYFSTEGGYVVLDESFNIGLKFEIAFEVRPRSSSGTLVHGHSVNGEYLNVHMKNGQVIVKVNNGIRDFSTSVTPKQSLCDGRWHRITVIRDSNVVQLDVDSEVNHVVGPLNPKPIDHREPVFVGGVPESLLTPRLAPSKPFTGCIRHFVIDGHPVSFSKAALVSGAVSINSCPAA

Each binder was assayed against SARS-CoV-2 M (assay: yeast fitness gain over the viral ORF with no human partner (scaled fitness); higher = more likely to interact).
Description: (§1)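 Split mouse DHFR complementation in pooled diploid yeast: human ORFeome clones carry one fragment and viral ORFs the other; barcoded lineages compete in 1 µg/mL methotrexate and fitness is read by barcode sequencing in up to three cultures.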

Q: B1 was tested. Which yeast fitness gain did it give?
A: The yeast fitness gain was inactive: 0.146.

Q: With B2 as the binder, how does the yeast fitness gain read?
A: Its yeast fitness gain is inactive: 0.0382.

Q: With B3 as the binder, how does the yeast fitness gain read?
A: The yeast fitness gain was inactive: -0.0635.

Q: Which yeast fitness gain does the source give for B4 here?
A: The yeast fitness gain was inactive: 0.00946.

What follows are binders tested against SARS-CoV-2 NSP1 in the same assay as above.
Description: as §1

Q: How did the yeast fitness gain turn out when B1 was run?
A: Its yeast fitness gain is inactive: -0.0295.

Q: For B2, which yeast fitness gain is on record?
A: The yeast fitness gain was inactive: -0.0869.

The binders below were run against SARS-CoV-2 NSP10 in the same assay as above.
Description: as §1

Q: With B1 as the binder, how does the yeast fitness gain read?
A: The yeast fitness gain was inactive: -0.248.

Q: Which yeast fitness gain does the source give for B2 here?
A: Its yeast fitness gain is inactive: -0.138.

Q: With B3 as the binder, how does the yeast fitness gain read?
A: The yeast fitness gain was inactive: 0.121.

Q: With B4 as the binder, how does the yeast fitness gain read?
A: The yeast fitness gain was inactive: 0.0678.

Each binder was assayed against SARS-CoV-2 NSP12 in the same assay as above.
Description: as §1

Q: B1 was tested. Which yeast fitness gain did it give?
A: The yeast fitness gain was inactive: 0.0228.

Q: B2 was tested. Which yeast fitness gain did it give?
A: Its yeast fitness gain is inactive: -0.0252.

Q: With B3 as the binder, how does the yeast fitness gain read?
A: Its yeast fitness gain is inactive: -0.179.

Q: With B4 as the binder, how does the yeast fitness gain read?
A: The yeast fitness gain was inactive: -0.0987.

Each binder was assayed against SARS-CoV-2 NSP13 in the same assay as above.
Description: as §1

Q: B1 was tested. Which yeast fitness gain did it give?
A: Its yeast fitness gain is inactive: 0.0411.

Q: B2 was tested. Which yeast fitness gain did it give?
A: Its yeast fitness gain is inactive: -0.0177.

Q: Which yeast fitness gain does the source give for B3 here?
A: Its yeast fitness gain is inactive: 0.0447.

Q: With B4 as the binder, how does the yeast fitness gain read?
A: Its yeast fitness gain is inactive: -0.0591.

These binders were tested against SARS-CoV-2 NSP2 in the same assay as above.
Description: as §1

Q: Which yeast fitness gain does the source give for B1 here?
A: The yeast fitness gain was inactive: -0.139.

Q: How did the yeast fitness gain turn out when B2 was run?
A: The yeast fitness gain was inactive: -0.257.

Q: How did the yeast fitness gain turn out when B3 was run?
A: Its yeast fitness gain is inactive: -0.271.

Q: With B4 as the binder, how does the yeast fitness gain read?
A: Its yeast fitness gain is inactive: -0.22.

The binders below were run against SARS-CoV-2 NSP5 in the same assay as above.
Description: as §1

Q: How did the yeast fitness gain turn out when B1 was run?
A: Its yeast fitness gain is inactive: 0.0088.

Q: With B3 as the binder, how does the yeast fitness gain read?
A: The yeast fitness gain was inactive: -0.0161.

Q: B4 was tested. Which yeast fitness gain did it give?
A: The yeast fitness gain was inactive: -0.0869.

These binders were tested against SARS-CoV-2 ORF3A in the same assay as above.
Description: as §1

Q: How did the yeast fitness gain turn out when B1 was run?
A: The yeast fitness gain was inactive: 0.0663.

Q: How did the yeast fitness gain turn out when B2 was run?
A: The yeast fitness gain was inactive: -0.00031.

Q: B4 was tested. Which yeast fitness gain did it give?
A: The yeast fitness gain was inactive: -0.00162.

The binders below were run against SARS-CoV-2 ORF6 in the same assay as above.
Description: as §1

Q: How did the yeast fitness gain turn out when B1 was run?
A: The yeast fitness gain was inactive: 0.0234.

Q: Which yeast fitness gain does the source give for B2 here?
A: The yeast fitness gain was inactive: -0.00909.

Q: B3 was tested. Which yeast fitness gain did it give?
A: Its yeast fitness gain is inactive: -0.0362.

Q: For B4, which yeast fitness gain is on record?
A: The yeast fitness gain was inactive: -0.0549.

The binders below were run against SARS-CoV-2 ORF7B in the same assay as above.
Description: as §1

Q: How did the yeast fitness gain turn out when B1 was run?
A: The yeast fitness gain was inactive: -0.0805.

Q: Which yeast fitness gain does the source give for B2 here?
A: Its yeast fitness gain is inactive: -0.0201.

Q: For B3, which yeast fitness gain is on record?
A: Its yeast fitness gain is inactive: -0.0228.

Q: For B4, which yeast fitness gain is on record?
A: Its yeast fitness gain is inactive: -0.00938.

What follows are binders tested against SARS-CoV-2 ORF8 in the same assay as above.
Description: as §1

Q: Which yeast fitness gain does the source give for B1 here?
A: The yeast fitness gain was inactive: 0.039.

Q: How did the yeast fitness gain turn out when B2 was run?
A: The yeast fitness gain was inactive: 0.0116.

Q: B3 was tested. Which yeast fitness gain did it give?
A: The yeast fitness gain was inactive: 0.0388.

Q: For B4, which yeast fitness gain is on record?
A: Its yeast fitness gain is inactive: -0.098.

What follows are binders tested against SARS-CoV-2 ORF9B in the same assay as above.
Description: as §1

Q: Which yeast fitness gain does the source give for B1 here?
A: The yeast fitness gain was inactive: -0.069.

Q: With B2 as the binder, how does the yeast fitness gain read?
A: Its yeast fitness gain is inactive: 0.0444.

Q: How did the yeast fitness gain turn out when B3 was run?
A: Its yeast fitness gain is inactive: -0.0902.

Q: Which yeast fitness gain does the source give for B4 here?
A: The yeast fitness gain was inactive: 0.0595.

These binders were tested against SARS-CoV-2 S in the same assay as above.
Description: as §1

Q: With B1 as the binder, how does the yeast fitness gain read?
A: The yeast fitness gain was inactive: -0.283.

Q: Which yeast fitness gain does the source give for B2 here?
A: Its yeast fitness gain is inactive: 0.00544.

Q: For B3, which yeast fitness gain is on record?
A: Its yeast fitness gain is inactive: -0.219.

These binders were tested against SARS-CoV-2 NSP6 in the same assay as above.
Description: as §1

Q: With B2 as the binder, how does the yeast fitness gain read?
A: Its yeast fitness gain is inactive: 0.0771.

Q: With B4 as the binder, how does the yeast fitness gain read?
A: Its yeast fitness gain is inactive: -0.118.

Each binder was assayed against SARS-CoV-2 NSP7 in the same assay as above.
Description: as §1

Q: For B2, which yeast fitness gain is on record?
A: The yeast fitness gain was inactive: -0.275.

Q: Which yeast fitness gain does the source give for B3 here?
A: Its yeast fitness gain is inactive: -0.173.

Q: How did the yeast fitness gain turn out when B4 was run?
A: The yeast fitness gain was inactive: 0.0794.

Each binder was assayed against SARS-CoV-2 NSP8 in the same assay as above.
Description: as §1

Q: B2 was tested. Which yeast fitness gain did it give?
A: Its yeast fitness gain is inactive: -0.0535.

These binders were tested against SARS-CoV-2 ORF10 in the same assay as above.
Description: as §1

Q: With B2 as the binder, how does the yeast fitness gain read?
A: The yeast fitness gain was inactive: -0.0581.

Q: How did the yeast fitness gain turn out when B3 was run?
A: Its yeast fitness gain is inactive: 0.0464.

Q: Which yeast fitness gain does the source give for B4 here?
A: Its yeast fitness gain is inactive: -0.0274.

Each binder was assayed against SARS-CoV-2 ORF3B in the same assay as above.
Description: as §1

Q: For B2, which yeast fitness gain is on record?
A: Its yeast fitness gain is inactive: 0.000824.

Q: How did the yeast fitness gain turn out when B3 was run?
A: The yeast fitness gain was inactive: 0.0187.

Q: Which yeast fitness gain does the source give for B4 here?
A: The yeast fitness gain was inactive: 0.0626.

Each binder was assayed against SARS-CoV-2 ORF7A in the same assay as above.
Description: as §1

Q: Which yeast fitness gain does the source give for B2 here?
A: The yeast fitness gain was inactive: -0.125.

Q: Which yeast fitness gain does the source give for B3 here?
A: Its yeast fitness gain is inactive: -0.0455.

Each binder was assayed against SARS-CoV-2 ORF9Bwu (the 73-codon ORF) in the same assay as above.
Description: as §1

Q: For B2, which yeast fitness gain is on record?
A: Its yeast fitness gain is inactive: 0.0795.

Each binder was assayed against SARS-CoV-2 NSP16 in the same assay as above.
Description: as §1

Q: B4 was tested. Which yeast fitness gain did it give?
A: The yeast fitness gain was inactive: -0.165.
